According to article PMC4336329 (PLoS ONE, 2015):
Screen size: about 310,000 compounds; about 2,200 (0.71%) showed an effect of 50% or more. Effects have a minus sign here. The list shows a part of the results.

Target: human ether-à-go-go-related gene (hERG) potassium channel (human, UniProt Q12809)
Test: primary screen, population patch clamp on CHO cells stably expressing hERG

human ether-à-go-go-related gene (hERG) potassium channel, sequence (Q12809 whole entry, looked up): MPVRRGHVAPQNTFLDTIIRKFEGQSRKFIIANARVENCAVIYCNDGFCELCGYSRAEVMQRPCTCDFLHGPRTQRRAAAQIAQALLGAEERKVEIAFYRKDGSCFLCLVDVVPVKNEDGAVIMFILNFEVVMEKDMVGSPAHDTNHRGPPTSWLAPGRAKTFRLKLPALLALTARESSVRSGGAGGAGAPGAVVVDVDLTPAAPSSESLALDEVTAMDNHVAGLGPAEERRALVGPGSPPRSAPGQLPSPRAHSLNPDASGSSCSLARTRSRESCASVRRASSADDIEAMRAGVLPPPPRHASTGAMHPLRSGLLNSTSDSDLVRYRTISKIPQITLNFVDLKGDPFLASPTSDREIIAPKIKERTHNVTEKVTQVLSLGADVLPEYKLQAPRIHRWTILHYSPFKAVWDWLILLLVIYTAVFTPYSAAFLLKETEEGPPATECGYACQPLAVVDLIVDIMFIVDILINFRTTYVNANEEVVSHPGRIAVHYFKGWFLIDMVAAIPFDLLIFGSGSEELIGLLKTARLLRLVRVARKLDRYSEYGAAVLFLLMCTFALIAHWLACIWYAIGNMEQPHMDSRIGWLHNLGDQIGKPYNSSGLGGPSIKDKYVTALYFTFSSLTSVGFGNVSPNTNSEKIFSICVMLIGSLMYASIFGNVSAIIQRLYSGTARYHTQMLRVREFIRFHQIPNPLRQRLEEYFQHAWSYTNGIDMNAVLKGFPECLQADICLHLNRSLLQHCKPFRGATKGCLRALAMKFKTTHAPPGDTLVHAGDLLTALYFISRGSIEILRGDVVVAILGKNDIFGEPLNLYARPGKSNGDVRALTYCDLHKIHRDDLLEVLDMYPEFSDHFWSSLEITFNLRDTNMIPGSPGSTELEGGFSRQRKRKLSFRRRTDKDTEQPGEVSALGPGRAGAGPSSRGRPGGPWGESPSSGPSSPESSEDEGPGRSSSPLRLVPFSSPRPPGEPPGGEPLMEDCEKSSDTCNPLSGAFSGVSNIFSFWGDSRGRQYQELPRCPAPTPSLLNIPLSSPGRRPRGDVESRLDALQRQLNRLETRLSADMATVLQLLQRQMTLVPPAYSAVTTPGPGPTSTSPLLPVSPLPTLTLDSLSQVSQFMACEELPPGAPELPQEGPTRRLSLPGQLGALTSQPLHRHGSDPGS

SMILES | hERG current change (%, negative = inhibition) at 1uM [%]
O=C(c1ccc([N+](=O)[O-])cc1)N(Cc1ccccc1)c1ccccn1 | 8.64
O=C(Nc1nccs1)C1CCN(S(=O)(=O)c2c(Cl)cccc2Cl)CC1 | 12.1
COc1ccc(C(=O)NCC(=O)N2CCCC(C)C2)cc1OC (centres unmarked) | 4.01
O=C(NCc1ccco1)c1ccccc1Br | 9.86
Cc1nc([N+](=O)[O-])c(Br)n1CC(=O)c1ccc(Cl)cc1 | -0.392
CC(C)(C)C(=O)NC(=S)Nc1cc(C(F)(F)F)ccc1N1CCOCC1 | 10.6
COC(=O)N/N=C/c1cc(Cl)c(OCc2ccccc2F)c(OC)c1 | 4.61
CC1CCC(NC(=O)c2cc(S(=O)(=O)N3CCCCC3)c[nH]2)CC1 (centres unmarked) | 6.23
O=C(O)C1C(C(=O)Nc2ccc(Cl)cc2)C2C=CC1C21CC1 (centres unmarked) | 13.5
Cc1cc(NS(=O)(=O)c2ccc(NC(=O)c3cc4cc(Br)ccc4oc3=O)cc2)no1 | 6.01
O=C(c1cc(-c2ccc(Cl)cc2)n(-c2ccc(Cl)cc2Cl)n1)N1CCOCC1 | -40.7
CC(C)C(=O)Nc1ccccc1Cc1ccccc1 | 7.22
COc1ccc(N(Cc2cc(=O)[nH]c3ccccc23)C(=O)CCl)cc1 | 14.5
Cc1ccn2c(-c3n[nH]c(=S)n3Cc3ccccc3)c(C)nc2c1 | 1.74
NS(=O)(=O)c1ccc(N=Nc2ccc(=O)[nH]c2O)cc1 | 18.2
Cc1ccc(S(=O)(=O)Nc2ccc3c(c2)CCC3)cc1C | 0.0445
CCN(CC)S(=O)(=O)c1ccc(C(=O)NCc2ccc3[nH]c4c(c3c2)CCCC4)cc1 | 16.4
Cn1nc2c3ccccc3n(Cc3ccc(F)cc3)c2nc1=S | 13.2
COc1cc(OC)c(S(=O)(=O)NC(C)C)cc1C(=O)O | 6.73
C=CCn1cc(C(=O)NCCCOC)c(=O)c2cc(S(=O)(=O)N3CCC(C)CC3)ccc21 | -1.87
CC1(C)CC(=O)C(Sc2nnc(-c3ccc(NS(C)(=O)=O)cc3)n2Cc2ccco2)C(=O)C1 | 16.5
Cc1ccc(C(C)C)cc1S(=O)(=O)NCc1cccnc1 | 16.6

SMILES | hERG current change (%, negative = inhibition) at 1uM [%]
Cc1ccc2cc(CN(CC3CCCO3)C(=O)NC3CCCCC3)c(=O)[nH]c2c1C (centres unmarked) | 2.18
O=C(CN1CCCCCC1=O)N1CCN(S(=O)(=O)c2cccs2)CC1 | 15.7
Cc1ccc(S(=O)(=O)N2CCC(=O)N(C(COCc3ccc(Cl)cc3)Cc3ccccc3)CC2)cc1 (centres unmarked) | 7.88
COc1cccc(C2CC(c3cccs3)=NN2C(=O)CSc2nc3ccccc3s2)c1OC (centres unmarked) | 10.9
O=C1NC(=O)N(Cc2ccc(F)cc2)C(=O)/C1=C\c1ccc(N2CCCC2)cc1 | 13.7
Cc1nc2ccccc2cc1OCc1ccc(Cl)cc1 | 15.1
O=C(CSc1ncnc2nc[nH]c12)Nc1nnc(SCc2ccc(Cl)c(Cl)c2)s1 | 11.2
Cc1ccc(C)c(NC(=O)Cn2cnc3c(oc4ccccc43)c2=O)c1 | 9.76
COc1ccc(NC(=O)c2cc(OC)c(OC)cc2OC)c(S(=O)(=O)N2CCOCC2)c1 | 3.64
CN(C(=O)CSc1nncn1-c1ccccc1)C1CCS(=O)(=O)C1 (centres unmarked) | 6.76
CC(=O)N(CC(C)(C)CC=C(C)C)c1ccccc1 | 13
COc1ccc(C(=O)CSc2nnc(CC(=O)Nc3ccccc3OC)n2C)cc1 | -5.03
Cc1cccn2c(=O)c3c(nc12)N1CCCCC1C1(C3)C(=O)N(C)C(=O)N(C)C1=O (centres unmarked) | 12.6
CCN(C(=O)COC(=O)c1cc([N+](=O)[O-])ccc1N1CCOCC1)C1CCCCC1 | 6.79
CC1CN(C(=O)CCN2C(=O)c3ccccc3C2=O)CC(C)O1 (centres unmarked) | 13.9
C1CCC2=NCCCN2CC1 | 7.59
NC(=O)c1ccccc1N1CCCCC1 | 18.3
O=C(Nc1ccccc1)C(Cc1cccs1)c1nn[nH]n1 (centres unmarked) | 7.61
CCc1nnc(NC(=O)c2ccc(NS(=O)(=O)c3ccccc3)cc2)s1 | -10.2
COC(=O)c1sccc1NC(=O)c1ccccc1 | 18.5
O=C(O)c1nn(CC(=O)N2CCN(c3ccccc3)CC2)c(=O)c2ccccc12 | 12.8
O=C(O)CN1C(=O)C(=O)N(Cc2c(F)cccc2Cl)C1=O | 12.3
